Source: the supplement of paper PMC4166925
± gives the standard deviation of the averaged measurements. Whole data set: some 33,000 sequences, median “E-score (dimensionless, -0.5 to 0.5)” near -0.049, cut for the highest 2% near 0.37. This is one part of the list.

tested on: T1, PmTbr T-box DNA-binding domain (GST fusion); experiment: PBM E-score of 8-mer (E-score (dimensionless, -0.5 to 0.5)); Tbr is Tbrain of the sea star Patiria miniata (Pm) or the sea urchin Strongylocentrotus purpuratus (Sp); higher = stronger binding preference; most listed sequences are background and not binding sites; settings: the construct has about 5 more residues each side
T1 sequence: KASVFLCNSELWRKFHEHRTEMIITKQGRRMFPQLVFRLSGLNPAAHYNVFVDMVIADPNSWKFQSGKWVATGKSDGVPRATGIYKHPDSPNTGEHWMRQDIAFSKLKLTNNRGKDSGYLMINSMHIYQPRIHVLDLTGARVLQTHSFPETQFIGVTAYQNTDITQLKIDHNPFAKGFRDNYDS
In short: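 Expression of GST-fused Tbr T-box DNA-binding domains, each holding the full T-box plus roughly five flanking residues, was carried out in BL21 E. coli at 20 °C, with purification by glutathione affinity chromatography. Universal Agilent arrays made double-stranded by primer extension were incubated with the protein at 200 nM in PBS (pH 7.5), then scanned and quantified. All ungapped 8-mers were scored from probe intensities, and each received an enrichment E-score from the Universal PBM Analysis Suite, averaged over duplicate arrays.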

Sequence	PBM E-score of 8-mer
GGACAACC	-0.163 ± 0.0029
CGAGGCCC	-0.297 ± 0.064
CCCTGAGA	-0.117 ± 0.086
ATCCATGC	-0.0986 ± 0.0046
CCAACGTA	-0.125 ± 0.084
AAGATCCG	-0.0663 ± 0.054
GGTTTAGA	-0.165 ± 0.012
ACTGTGCC	-0.0429 ± 0.0065
CTAACGAC	0.0678 ± 0.02
ACAGAGAC	-0.0571 ± 0.00095
CGCTAAGC	0.085 ± 0.066
AGGACTGA	-0.103 ± 0.029
AGTCATTA	0.027 ± 0.049
ACACTCGC	0.352 ± 0.011
GTAGGTCA	-0.0527 ± 0.062
CGGTGGTA	-0.00583 ± 0.042
GCCAATCA	-0.0356 ± 0.057
GAGGCAGC	-0.161 ± 0.082
GAGTTGGA	-0.0868 ± 0.0038
GACATCCA	0.00494 ± 0.044
CATATCGC	0.196 ± 0.059
GGGGGAAC	-0.0958 ± 0.093
ACCTGCAC	0.163 ± 0.056
GAAATTGC	-0.0456 ± 0.013
GGTTACAC	0.239 ± 0.044

Sequence	PBM E-score of 8-mer
AAACCACG	-0.0687 ± 0.029
CCCGAGAC	-0.136 ± 0.039
ATTTGACG	0.171 ± 0.12
CCTCCCTC	-0.195 ± 0.058
GCAACTCC	0.227 ± 0.045
GAACCCAA	-0.0433 ± 0.029
ATCAGATG	0.0342 ± 0.053
GGATCTCA	-0.101 ± 0.01
AATGCGGC	-0.00328 ± 0.02
CGTGATAC	0.177 ± 0.087
GTATGGGA	-0.306 ± 0.0041
GCGCGAAC	0.411 ± 0.017
ATTGTGCC	0.0295 ± 0.034
CAAAGTCG	-0.0635 ± 0.038
AGTGGTAG	0.111 ± 0.066
ATGGTAGG	0.0178 ± 0.038
ACCGAAAC	-0.188 ± 0.013
TCCAACGA	-0.0827 ± 0.02
CAGTACGA	-0.164 ± 0.0049
CTAGATTA	-0.0999 ± 0.051
CTTAGGGC	-0.123 ± 0.038
CTACGCCC	0.0283 ± 0.045
CTATAAAC	-0.0338 ± 0.068
AACGGGAT	-0.136 ± 0.014
TAGTTCGA	0.16 ± 0.056

Sequence	PBM E-score of 8-mer
CCACCAGG	-0.195 ± 0.069
AGTAGGGC	-0.278 ± 0.072
ACCCTTTG	-0.0701 ± 0.029
CGTTTTAC	-0.0254 ± 0.085
GTGAGTAA	0.242 ± 0.032
ACGTCGCC	-0.0221 ± 0.011
GTCCTAAA	-0.16 ± 0.06
ACCGGGGG	-0.227 ± 0.097
ATTAAATC	-0.127 ± 0.0058
ATTGATTA	-0.0965 ± 0.0069
GTATAATA	-0.244 ± 0.01
GTGTACAC	-0.0175 ± 0.025
TACAGGCA	0.0516 ± 0.028
CGTGTTAC	0.349 ± 0.015
AGGGCATA	-0.149 ± 0.025
AGATCATG	-0.15 ± 0.0075
ACGCCGGG	-0.0787 ± 0.081
ACCCAGCT	-0.119 ± 0.046
GACGTAGA	-0.0828 ± 0.053
CAATGTAG	-0.0135 ± 0.03
AGGTCACC	0.111 ± 0.041
AGCCAGAG	-0.0902 ± 0.046
AATAATAC	-0.0559 ± 0.084
CCTGTCTC	0.0494 ± 0.052
AAGTGCAC	-0.0994 ± 0.032

Sequence	PBM E-score of 8-mer
ACACGCTA	0.128 ± 0.027
GCGACTTA	0.158 ± 0.044
CTCCGTAC	-0.168 ± 0.014
CGATAAAG	0.175 ± 0.079
AGTCATGA	-0.0772 ± 0.02
TGCCTTAA	-0.0679 ± 0.022
CTACTACC	-0.143 ± 0.066
ACACGTAA	0.175 ± 0.0069
GGTTAAAA	-0.0875 ± 0.036
AACCCGCC	-0.08 ± 0.0019
GTGATGTA	0.115 ± 0.033
GGGAGACC	-0.188 ± 0.068
GTACAGAA	-0.119 ± 0.061
CTCACGCC	0.3929 ± 0.00041
CACACTGA	0.2581 ± 0.00048
GTCGCCCA	0.192 ± 0.015
ATATAGGG	-0.119 ± 0.031
CTTGTCAC	0.405 ± 0.015
CGTGGGTA	-0.0403 ± 0.024
AGATGTGG	0.0433 ± 0.038
AGCATGAC	-0.0334 ± 0.014
CTGAGTCC	-0.154 ± 0.032
GCAAGTAC	0.0735 ± 0.073
AATCGATC	-0.0502 ± 0.086
GAAAGGGC	-0.0791 ± 0.011

Sequence	PBM E-score of 8-mer
AAGACAAG	-0.0534 ± 0.077
TTCTCCAA	-0.14 ± 0.013
GCAAGGCC	-0.145 ± 0.002
CGCTAACG	0.3714 ± 0.0037
CCTAAACA	-0.0519 ± 0.0048
ATATCCAA	-0.0364 ± 0.021
AATTGTTC	-0.0266 ± 0.035
TAGTCTAA	-0.181 ± 0.032
CCGAGCGC	0.0142 ± 0.014
GAGGTAGC	-0.0935 ± 0.045
CGGTCACA	0.218 ± 0.068
ACAAAACG	0.0347 ± 0.054
AATAGTGT	0.213 ± 0.046
ACCGGTCC	-0.276 ± 0.048
GACTAACA	0.215 ± 0.034
CCTCTGTA	0.0451 ± 0.023
AGCAGACC	-0.0932 ± 0.025
AAGTCGTG	0.173 ± 0.018
GGAGGGGA	-0.036 ± 0.063
GCCAACAA	0.153 ± 0.026
CCAGCAAG	-0.207 ± 0.0072
TGCGGTAA	-0.0928 ± 0.031
CCTATGCC	-0.146 ± 0.0042
CACGGCCA	0.0611 ± 0.028
CCGACGAG	0.0868 ± 0.013

Sequence	PBM E-score of 8-mer
CGGGGCAG	-0.0761 ± 0.031
CTTGAATC	-0.165 ± 0.011
CTGGAGGA	-0.00257 ± 0.063
GAGAACTA	0.184 ± 0.025
CACCCAAG	0.263 ± 0.023
TCATAGCA	0.0932 ± 0.011
CAAGATCC	-0.0705 ± 0.028
TACCCCCA	-0.3648 ± 0.0034
AGCCTTAC	-0.307 ± 0.0095
CGTGCTGA	0.209 ± 0.024
GCCGGGAA	0.0291 ± 0.082
AAACGACG	0.00901 ± 0.025
AACCTAGG	-0.0117 ± 0.074
CCGAGGGC	-0.0627 ± 0.08
GATCCTGA	-0.144 ± 0.049
CAGCATCC	-0.171 ± 0.0059
ACTCCTGC	-0.195 ± 0.015
AAGCAGAG	-0.286 ± 0.013
ACGCGACA	0.334 ± 0.028
GCACTTTA	0.291 ± 0.06
ATCTCGGG	0.00677 ± 0.023
GCAGACCA	-0.28 ± 0.12
CATCTTAG	0.0719 ± 0.0036
GTTTACCA	0.00923 ± 0.035
ATCGATAG	0.0697 ± 0.011

Sequence	PBM E-score of 8-mer
ATGCCAAT	0.075 ± 0.04
AGCGTCCC	-0.157 ± 0.07
GAATAAAC	-0.19 ± 0.041
ATCACCTC	0.4197 ± 0.00045
GTAGGGGA	-0.198 ± 0.086
ACGCGACT	0.0612 ± 0.064
GCGTGGTA	-0.0938 ± 0.022
ACGAGGAA	-0.2 ± 0.035
CCGTCGCA	0.168 ± 0.048
CAATACGG	-0.256 ± 0.0027
AGCAAGTG	0.266 ± 0.023
CATTCGGG	-0.226 ± 0.025
ATTGGAGG	0.0195 ± 0.049
ACTAGCTC	-0.184 ± 0.036
CCGTCTCA	0.057 ± 0.034
GCGCGTCA	0.287 ± 0.029
AATTTATA	-0.123 ± 0.1
CATGAAGG	-0.00622 ± 0.018
GCATCCAA	-0.145 ± 0.043
ATGCGACC	0.0103 ± 0.013
CGACTACC	-0.059 ± 0.041
CTTGTTAC	0.152 ± 0.044
